# Results filed as inconclusive are left out. The call rests on the fitted dose curve. A structure can be active in one record and inactive in another. The source holds more than one record for some entries. This is not the full list of results. The source may hold further records. Values that stand side by side are repeats in other runs, samples, wells, individuals or studies. Records carry a tag for their origin. The letters are not those of the source and start again with each entry.
# Biological target: Retinoic acid receptor RXR-alpha (Homo sapiens) (UniProt P19793)
# Test: qHTS assay for small molecule agonists of retinoid X receptor alpha signaling (AID 588544)
# Potency means the concentration at half of the fitted maximal effect.
# Chain of UniProt P19793 (P19793 whole entry, looked up): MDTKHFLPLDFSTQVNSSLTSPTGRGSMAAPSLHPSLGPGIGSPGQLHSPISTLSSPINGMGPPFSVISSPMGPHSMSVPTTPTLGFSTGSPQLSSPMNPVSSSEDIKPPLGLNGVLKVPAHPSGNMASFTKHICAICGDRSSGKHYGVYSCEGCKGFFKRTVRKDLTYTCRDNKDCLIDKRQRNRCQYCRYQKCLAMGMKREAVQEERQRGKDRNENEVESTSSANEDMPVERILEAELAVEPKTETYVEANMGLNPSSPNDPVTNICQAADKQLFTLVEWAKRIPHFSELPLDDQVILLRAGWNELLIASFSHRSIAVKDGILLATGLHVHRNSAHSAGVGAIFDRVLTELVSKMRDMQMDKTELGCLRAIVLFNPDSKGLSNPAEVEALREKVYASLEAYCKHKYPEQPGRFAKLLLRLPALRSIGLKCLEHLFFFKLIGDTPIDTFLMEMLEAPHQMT
row,SMILES,Potency
1,C=CC(=O)NCO,active: 39.8 µM [sample A] and inactive [sample B]
2,CN(C)C=O,inactive [sample A] and inactive [sample B] and active: 14.1 µM [sample C]

# Reference: PubChem BioAssay (NCATS)
